In the supplement of paper PMC11060735:
Where “and” joins values, the source holds several entries; their conditions need not be identical. Equal values may be shown once. Where a name gives a salt, the structure may show the parent alone. Out of some 1,800 compounds screened, about 50 (3%) showed activity. The list shows a part of the results.

Test system: mouse p16Ink4a+/- lung fibroblasts (INKBRITE, bleomycin-injured)
Assay: percentage of GFP+ (p16Ink4a+) fibroblasts among all cells in well; higher = less depletion of p16Ink4a+ cells, active = 20 or less
Conditions: 1 µM; 3 days
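Note: fibroblasts sorted 14 days after bleomycin, GFP+ and GFP− mixed 1:1 in 384-well plates (GFP− as in-well control), imaged after Hoechst and NucView530 staining, reference wells lacked compound.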

SMILES	percentage of GFP+
CC(=O)O[C@@]12CO[C@@H]1C[C@H](O)[C@@]1(C)C(=O)[C@H](O)C3=C(C)[C@@H](O)C[C@@](O)([C@@H](OC(=O)c4ccccc4)[C@H]21)C3(C)C [10-Deacetylbaccatin-III]	inactive: 44.6%
C/C(=C\c1csc(C)n1)[C@@H]1C[C@@H]2O[C@]2(C)CCC[C@H](C)[C@H](O)[C@@H](C)C(=O)C(C)(C)[C@@H](O)CC(=O)O1 [Epothilone B, Patupilone]	inactive: 44.2%
O=c1cccc2n1C[C@@H]1CNC[C@H]2C1 [Cytisine]	inactive: 46.3%
CC(=O)Nc1ccc(OC[C@](C)(O)C(=O)Nc2ccc([N+](=O)[O-])c(C(F)(F)F)c2)cc1 [Andarine]	inactive: 44.7%
CC(=O)O[C@H]1C[C@@H]2CC[C@@H]3[C@H](CC[C@@]4(C)[C@H]3C[C@H]([N+]3(C)CCCCC3)[C@@H]4OC(C)=O)[C@@]2(C)C[C@@H]1[N+]1(C)CCCCC1 [Pancuronium]	inactive: 37%
CCCCCCCCCCCCCCCC[n+]1ccccc1 [Cetylpyridinium Bromide]	inactive: 45.2%
c1ccc2c(c1)Nc1ccccc1S2 [Phenothiazine]	inactive: 46.4%
C[C@H]1CCC/C=C/[C@@H]2C[C@H](O)C[C@H]2[C@H](O)/C=C/C(=O)O1 [Brefeldin A]	inactive: 23.3%
CC[C@H]1/C=C\C=C/C[C@@H](C)[C@H](O)[C@@](C)(O)C(=O)[C@@H](C)[C@H](O)[C@@H](C)C(=O)[C@@H](C)[C@H](O)[C@@H](C)/C=C/C(=O)O[C@@H]2C(C)[C@H](CC1)O[C@]1(CC[C@H](C)[C@H](C[C@@H](C)O)O1)[C@H]2C (some centres undefined) [Oligomycin A]	inactive: 36.1%
C[C@]12CCC(=O)C(O)=C1CC[C@@H]1[C@@H]2CC[C@]2(C)C(=O)CC[C@@H]12 [Formestane]	inactive: 37.6%
CCCN1CCO[C@H]2c3cc(O)ccc3OC[C@@H]21	inactive: 42.6%
CCN1C[C@]2(OC(=O)c3ccccc3NC(C)=O)CC[C@H](OC)[C@]34C1[C@H](C[C@H]23)[C@@]1(O)C[C@H](OC)[C@H]2C[C@@H]4[C@]1(O)[C@H]2OC [Lappaconite HBr]	inactive: 46.6%
C#C[C@]1(O)C=C[C@H]2[C@@H]3CCC4=CC(=O)CC[C@@H]4[C@H]3CC[C@@]21CC [Gestodene]	inactive: 34.7%
C[C@]12N[C@H](Cc3ccccc31)c1ccccc12 [(+)-mk-801 Hydrogen Maleate]	inactive: 43.8%
CC[C@@H]1[C@@H](C)O[C@@](O)([C@@H](C)[C@H](O)[C@H](C)[C@H]2OC(=O)/C=C/C=C/[C@H](C)[C@H]([C@@H](C)[C@@H](O)[C@H](C)[C@@]3(O)C[C@@H](O[C@H]4C[C@H](O)[C@H](O)[C@H](C)O4)[C@H](CC)[C@@H](C)O3)OC(=O)/C=C/C=C/[C@H]2C)C[C@H]1O[C@H]1C[C@H](O)[C@H](O)[C@H](C)O1 [Elaiophylin]	active: 11.1%
CC[C@@H](C(N)=O)N1CCCC1=O [Levetiracetam]	inactive: 46.8%
CCC1(C)CC(=O)NC(=O)C1 [Bemegride]	inactive: 48.1%
Cc1sc2c(c1C)C(c1ccc(Cl)cc1)=N[C@@H](CC(=O)OC(C)(C)C)c1nnc(C)n1-2	inactive: 23.8%
CN1[C@@H]2CC[C@H]1CC(OC(=O)C1C=Nc3ccccc31)C2 (some centres undefined) [Tropisetron]	inactive: 38.3%
CC(C)NCC(O)c1ccccc1Cl (centres undefined) [Clorprenaline]	inactive: 50.3%
CCOC(=O)c1cncn1C(C)c1ccccc1 (centres undefined) [Etomidate]	inactive: 43.8%
O=C(NCC1CCOCC1)c1cnc(Nc2ccc(Cl)cc2Cl)nc1C(F)(F)F	inactive: 44.7%

SMILES	percentage of GFP+
CN(C)C(=O)Oc1ccc[n+](C)c1 [Pyridostigmine]	inactive: 43.8%
O=[N+]([O-])c1ncc[nH]1 [Azomycin]	inactive: 43.5%
CCNC(=O)C[C@@H]1N=C(c2ccc(Cl)cc2)c2cc(OC)ccc2-n2c(C)nnc21	inactive: 30.5%
c1cc2c(cc1[C@H]1OC[C@H]3[C@@H]1CO[C@@H]3c1ccc3c(c1)OCO3)OCO2 [Sesamin]	inactive: 37.7%
CN1CCN(c2nc3ccccc3nc2Cl)CC1	inactive: 42.1%
Cn1c(CCCC(=O)O)nc2cc(N(CCCl)CCCl)ccc21 [Bendamustine]	inactive: 44.3%
Cc1cccc(C)c1NC(=O)CN1CCCC1=O [Nefiracetam]	inactive: 41.6%
CN1[C@@H]2C[C@@H](OC(=O)[C@H](CO)c3ccccc3)C[C@H]1[C@@H]1O[C@@H]12 [Scopolamine]	inactive: 45.1%
CNCC(O)c1ccc(O)cc1 (centres undefined) [Synephrine]	inactive: 43.9% and inactive: 48.2%
O=[N+]([O-])/C=C/c1ccc2c(c1)OCO2	inactive: 35.6%
CN1C(=O)CCS(=O)(=O)C1c1ccc(Cl)cc1 (centres undefined) [Chlomezanone, Chlormezanone]	inactive: 36.4%
C[C@@H]1CC[C@H]2[C@@H](C)C(=O)O[C@@H]3O[C@@]4(C)CC[C@@H]1[C@]32OO4 [Artemisinin]	inactive: 39.6%
O=C(O)CNC(=O)c1c(O)c2ccccc2n(Cc2ccccc2)c1=O	inactive: 39.6%
N#C[C@H](O[C@@H]1O[C@H](CO[C@@H]2O[C@H](CO)[C@@H](O)[C@H](O)[C@H]2O)[C@@H](O)[C@H](O)[C@H]1O)c1ccccc1 [Amygdalin(d)]	inactive: 46.3%
CO[C@H]1CCC(O[C@H]2C[C@H]([C@]3(C)CC[C@]4(C[C@H](O)[C@@H](C)[C@@H]([C@@H](C)/C=C(\C)C(=O)[C@H](C)C[C@H](C)C(=O)O)O4)O3)O[C@]3(O[C@@H]([C@H]4O[C@@](O)(CO)[C@H](C)C[C@@H]4C)C[C@@H]3C)[C@@H]2C)O[C@@H]1C (some centres undefined) [Nanchangmycin]	active: 18.5%
Fc1cc(F)c2c(c1)[C@H]1C=CC[C@H]1C(c1cccnc1)N2 (some centres undefined) [Golgicide A]	inactive: 41%
OC(c1ccccc1)(c1ccccc1)C1CCNCC1 [Azacyclonol]	inactive: 28.6%
CC[C@@]1(O)C(=O)OCc2c1cc1n(c2=O)Cc2cc3ccccc3nc2-1 [Camptothecin]	inactive: 35.2%
C[C@@]12N[C@@H](Cc3ccccc31)c1ccccc12 [(-)-MK 801 Maleate]	inactive: 41.5%
Cc1sc2c(c1C)C(c1ccc(Cl)cc1)=N[C@@H](CC(=O)Nc1ccc(O)cc1)c1nnc(C)n1-2	inactive: 24.8%
Cc1cccc(Cc2c[nH]cn2)c1C [Detomidine HCl]	inactive: 49.8%
CCN(CC)C(=O)c1ccc(C2=CC3(CCNCC3)Oc3cccc(O)c32)cc1	inactive: 42.3%

SMILES	percentage of GFP+
CCc1c(C(=O)C(N)=O)c2c(OCC(=O)O)cccc2n1Cc1ccccc1 [Varespladib]	inactive: 35.3%
O=C(O[C@H]1C[C@H]2CC[C@@H](C1)[N+]21CCCC1)C(O)(c1ccccc1)c1ccccc1 [Trospium]	inactive: 48.4%
O=C1C=CC[C@@H]2[C@H]3CCCN4CCC[C@@H](CN12)[C@@H]34 [Sophocarpine]	inactive: 40.3%
COC[C@H]1OC(=O)c2coc3c2[C@@]1(C)C1=C(C3=O)[C@@H]2CCC(=O)[C@@]2(C)C[C@H]1OC(C)=O [Wortmannin]	inactive: 28.3%
CN1c2ccccc2C(NCCCCCCC(=O)O)c2ccc(Cl)cc2S1(=O)=O (centres undefined) [Tianeptine]	inactive: 29.5%
O=C(O[C@H]1C[N+]2(CCCOc3ccccc3)CCC1CC2)C(O)(c1cccs1)c1cccs1 [Aclidinium]	inactive: 49.3%
N#CC(C#N)=Cc1ccc(O)c(O)c1	inactive: 38.7%
C[C@H]1CNCCc2ccc(Cl)cc21 [Lorcaserin]	inactive: 47.1%
CC(C)(C)c1cc(C=C(C#N)C#N)cc(C(C)(C)C)c1O [Tyrphostin A9]	inactive: 33%
CC(C)(C)c1cc(C=C(C#N)C#N)cc(Br)c1O	inactive: 40.7%
CN(C)[C@@H]1C(=O)C(C(N)=O)=C(O)[C@@]2(O)C(O)=C3C(=O)c4c(O)cccc4[C@@](C)(O)[C@H]3C[C@@H]12 [Tetracycline]	inactive: 36.8%
CCCN1C[C@H](CSC)C[C@@H]2c3cccc4[nH]cc(c34)C[C@H]21 [Pergolide]	inactive: 54.5%
CC(NC(C)(C)C)C(=O)c1cccc(Cl)c1 (centres undefined)	inactive: 53%
C[C@]12CC(C=O)=C(O)C[C@@H]1CC[C@@H]1[C@H]2CC[C@@]2(C)[C@H]1CC[C@@]2(C)O [Oxymetholone]	inactive: 47.4%
CN(C)[C@@H]1C(=O)C(C(N)=O)=C(O)[C@@]2(O)C(O)=C3C(=O)c4c(O)cccc4[C@@](C)(O)[C@H]3[C@H](O)[C@@H]12 [Oxytetracycline]	inactive: 42.3%
CN(C)CCc1ccc(O)cc1 [Hordenine]	inactive: 37.4%
COC1=C[C@@H]2[C@@H]3Cc4ccc(OC)c(O)c4[C@]2(CCN3C)CC1=O [Sinomenine]	inactive: 38.3%
CCC1(c2ccc(N)cc2)CCC(=O)NC1=O (racemic) [(¬±)-p-aminoglutethimide, Aminoglutethimide]	inactive: 40.7%
CC1(C)CC(O)CC(C)(C)N1O [Tempol]	inactive: 48.4%
CC[C@H](C(=O)[C@H](C)[C@@H](O)[C@@H](C)[C@@H]1O[C@@H]([C@@H](CC)C(=O)O)CC[C@H]1C)[C@H]1O[C@]2(C=C[C@@H](O)[C@]3(CC[C@@](C)([C@H]4CC[C@](O)(CC)[C@H](C)O4)O3)O2)[C@H](C)C[C@H]1C [Salinomycin]	inactive: 37.1%
